According to paper PMC5700166:
Only a part is listed here, and it is no random draw. The list includes weakly bound sequences.

How the values were obtained:
Assay in all cases: protein-binding microarray (PBM)
Details in all cases: PBM: ~300 nM protein, 6 mM HEPES pH 7.8, 80 mM KCl, 0.5 mM EDTA, 0.5 mM EGTA, 6% glycerol, 35 ng/ul poly-dIdC, 1% milk, 1 h, room temperature; Ap Aiptasia and Nv Nematostella (sea anemones) / Co Capsaspora / Aq Amphimedon (sponge) / Dm Drosophila / Hu human; RHD is the Rel homology domain; high values mean tight binding; most listed sequences are background and not binding sites; double strand, one strand shown
GST-Ap-NF-kB RHD = molecular target: T1, GST-Ap-NF-kB RHD (UniProt A0A913YAJ5)
T1 sequence: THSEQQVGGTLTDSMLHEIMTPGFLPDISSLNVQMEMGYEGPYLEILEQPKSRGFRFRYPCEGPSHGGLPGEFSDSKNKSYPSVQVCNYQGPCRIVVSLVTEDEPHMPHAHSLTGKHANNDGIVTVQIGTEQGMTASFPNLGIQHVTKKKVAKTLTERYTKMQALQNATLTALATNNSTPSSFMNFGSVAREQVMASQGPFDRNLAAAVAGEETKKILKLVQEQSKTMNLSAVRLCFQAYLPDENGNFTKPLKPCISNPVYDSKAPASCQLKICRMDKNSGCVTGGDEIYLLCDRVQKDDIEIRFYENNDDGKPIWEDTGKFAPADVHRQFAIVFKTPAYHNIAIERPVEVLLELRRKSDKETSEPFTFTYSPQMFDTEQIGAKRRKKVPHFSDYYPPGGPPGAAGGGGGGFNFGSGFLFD

[1] = molecular target: T2, GST-Nv-NF-kB (Cys allele) (UniProt E5G601)
T2 sequence: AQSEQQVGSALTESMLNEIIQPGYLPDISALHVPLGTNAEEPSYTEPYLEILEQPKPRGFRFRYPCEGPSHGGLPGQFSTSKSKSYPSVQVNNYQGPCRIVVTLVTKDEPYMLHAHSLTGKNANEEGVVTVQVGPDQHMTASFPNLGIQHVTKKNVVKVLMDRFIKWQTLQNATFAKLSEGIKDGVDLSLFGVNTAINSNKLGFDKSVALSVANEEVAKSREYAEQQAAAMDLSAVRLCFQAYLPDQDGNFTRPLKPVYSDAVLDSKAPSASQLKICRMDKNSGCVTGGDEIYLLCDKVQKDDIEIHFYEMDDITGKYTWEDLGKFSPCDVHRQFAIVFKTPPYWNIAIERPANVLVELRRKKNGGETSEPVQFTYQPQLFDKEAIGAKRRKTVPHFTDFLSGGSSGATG

GST-Co-NF-kB = molecular target: T3, GST-Co-NF-kB (UniProt F1ARL5)
T3 sequence: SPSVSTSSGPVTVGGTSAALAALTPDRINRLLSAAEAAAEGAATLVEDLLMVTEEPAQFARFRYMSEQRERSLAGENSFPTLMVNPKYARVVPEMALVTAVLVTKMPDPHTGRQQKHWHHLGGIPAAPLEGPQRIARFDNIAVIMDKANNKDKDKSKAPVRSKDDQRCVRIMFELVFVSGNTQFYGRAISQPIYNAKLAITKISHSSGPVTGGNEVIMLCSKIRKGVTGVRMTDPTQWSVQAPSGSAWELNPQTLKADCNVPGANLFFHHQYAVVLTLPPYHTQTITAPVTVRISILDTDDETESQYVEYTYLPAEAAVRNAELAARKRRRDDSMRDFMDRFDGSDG

GST-Dm-Relish = molecular target: T4, GST-Dm-Relish (UniProt Q94527)
T4 sequence: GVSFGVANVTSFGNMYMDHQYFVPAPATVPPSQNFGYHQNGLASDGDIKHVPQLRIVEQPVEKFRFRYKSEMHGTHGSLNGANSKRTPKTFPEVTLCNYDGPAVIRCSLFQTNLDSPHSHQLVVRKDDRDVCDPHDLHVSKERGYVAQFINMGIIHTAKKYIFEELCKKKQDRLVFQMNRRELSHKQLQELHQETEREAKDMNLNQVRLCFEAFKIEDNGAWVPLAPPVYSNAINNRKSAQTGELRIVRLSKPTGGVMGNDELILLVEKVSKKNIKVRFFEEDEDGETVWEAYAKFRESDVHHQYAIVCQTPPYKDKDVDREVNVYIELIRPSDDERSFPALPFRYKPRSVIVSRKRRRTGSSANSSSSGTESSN

Sequence	binding signal (GST-Ap-NF-kB RHD)	binding signal [1]	binding signal (GST-Co-NF-kB)	binding signal (GST-Dm-Relish)
CCGATTAACATCACGGATTGCCCTGATGTTAATCGGGTCTTGATTCGCTTGACGCTGCTG	0.297 z-score	-0.512 z-score	0.124 z-score	-0.115 z-score
CCGATTAACATCACGGAAAAGCCTGATGTTAATCGGGTCTTGATTCGCTTGACGCTGCTG	0.138 z-score	-0.109 z-score	-0.0482 z-score	0.243 z-score
CCGATTAACATCACGGATTTTCCTGATGTTAATCGGGTCTTGATTCGCTTGACGCTGCTG	-0.018 z-score	-0.12 z-score	0.844 z-score	0.687 z-score
CCGATTAACATCAGAATTTCCGCTGATGTTAATCGGGTCTTGATTCGCTTGACGCTGCTG	-0.211 z-score	-0.155 z-score	-0.385 z-score	0.0583 z-score
CCGATTAACATCAGGACTTTCCATGATGTTAATCGGGTCTTGATTCGCTTGACGCTGCTG	-0.177 z-score	0.333 z-score	-0.629 z-score	3.27 z-score
CCGATTAACATCAGGAAATGTCCTGATGTTAATCGGGTCTTGATTCGCTTGACGCTGCTG	-0.416 z-score	-0.442 z-score	-0.501 z-score	-0.21 z-score
CCGATTAACATCACTATTTCCCCTGATGTTAATCGGGTCTTGATTCGCTTGACGCTGCTG	6.35 z-score	7.42 z-score	8.77 z-score	3.62 z-score
CCGATTAACATCATGTTGGGAAATGATGTTAATCGGGTCTTGATTCGCTTGACGCTGCTG	1.02 z-score	2.29 z-score	2.51 z-score	0.16 z-score
CCGATTAACATCAAGAATTTCCGTGATGTTAATCGGGTCTTGATTCGCTTGACGCTGCTG	0.672 z-score	0.364 z-score	0.201 z-score	0.43 z-score
CCGATTAACATCACGGAGATTCCTGATGTTAATCGGGTCTTGATTCGCTTGACGCTGCTG	0.00102 z-score	0.168 z-score	0.173 z-score	0.486 z-score
CCGATTAACATCAGGCAATGCCCTGATGTTAATCGGGTCTTGATTCGCTTGACGCTGCTG	-0.426 z-score	0.556 z-score	-0.734 z-score	-0.774 z-score
CCGATTAACATCAGGAAGTGCCCTGATGTTAATCGGGTCTTGATTCGCTTGACGCTGCTG	0.564 z-score	0.471 z-score	-0.43 z-score	-0.142 z-score
CCGATTAACATCAACGGAATTTCTGATGTTAATCGGGTCTTGATTCGCTTGACGCTGCTG	-0.213 z-score	0.447 z-score	0.48 z-score	0.528 z-score
CCGATTAACATCACGGAAAGTCCTGATGTTAATCGGGTCTTGATTCGCTTGACGCTGCTG	0.606 z-score	0.42 z-score	-0.444 z-score	3.12 z-score
CCGATTAACATCAAGTTCCCCCCTGATGTTAATCGGGTCTTGATTCGCTTGACGCTGCTG	7.37 z-score	6.39 z-score	10.1 z-score	6.95 z-score
CCGATTAACATCAGAGGATTTCCTGATGTTAATCGGGTCTTGATTCGCTTGACGCTGCTG	0.464 z-score	0.00186 z-score	-0.652 z-score	1.74 z-score
CCGATTAACATCAGGAGACTCCCTGATGTTAATCGGGTCTTGATTCGCTTGACGCTGCTG	2.16 z-score	2.35 z-score	1.37 z-score	1.79 z-score
CCGATTAACATCAGGGGGGACAATGATGTTAATCGGGTCTTGATTCGCTTGACGCTGCTG	4.56 z-score	4.19 z-score	6.09 z-score	2.95 z-score
CCGATTAACATCAAACCCTACTGTGATGTTAATCGGGTCTTGATTCGCTTGACGCTGCTG	0.166 z-score	0.304 z-score	0.776 z-score	0.374 z-score
CCGATTAACATCAGGAATTCTCCTGATGTTAATCGGGTCTTGATTCGCTTGACGCTGCTG	-0.453 z-score	0.787 z-score	-0.269 z-score	0.661 z-score
CCGATTAACATCAGCGGAAATCCTGATGTTAATCGGGTCTTGATTCGCTTGACGCTGCTG	0.232 z-score	0.294 z-score	0.175 z-score	1.26 z-score
CCGATTAACATCAAAATTTCCCCTGATGTTAATCGGGTCTTGATTCGCTTGACGCTGCTG	10.2 z-score	11.6 z-score	10.6 z-score	8.41 z-score
CCGATTAACATCAGGAATTTACCTGATGTTAATCGGGTCTTGATTCGCTTGACGCTGCTG	0.97 z-score	3.18 z-score	-0.159 z-score	4.54 z-score
CCGATTAACATCAAGGCATTTCCTGATGTTAATCGGGTCTTGATTCGCTTGACGCTGCTG	-0.435 z-score	-0.79 z-score	-0.19 z-score	-0.672 z-score
CCGATTAACATCAGGAAAAGTACTGATGTTAATCGGGTCTTGATTCGCTTGACGCTGCTG	-0.0632 z-score	-0.259 z-score	0.334 z-score	4.26 z-score
CCGATTAACATCACGGTCTTTCCTGATGTTAATCGGGTCTTGATTCGCTTGACGCTGCTG	-0.0321 z-score	0.0435 z-score	-0.339 z-score	0.699 z-score
CCGATTAACATCAAGGAATCTCCTGATGTTAATCGGGTCTTGATTCGCTTGACGCTGCTG	-0.0796 z-score	-0.327 z-score	-0.787 z-score	-0.385 z-score
CCGATTAACATCACGGAATGTCCTGATGTTAATCGGGTCTTGATTCGCTTGACGCTGCTG	-0.211 z-score	0.078 z-score	-0.433 z-score	0.367 z-score
